# Assay results taken from PubChem BioAssay AID686978 (National Center for Advancing Translational Sciences (NCATS), 2013).
# Where “and” joins values, the source holds several entries; their conditions need not be identical. Equal values may be shown once. The campaign covered roughly 420,000 compounds. About 64,000 (15%) were called active. The inconclusive results got no clear call from the source; some entries with a clear call stand among them for comparison. Calls come from the whole dose curve; as a rule, active = well fitted inhibition curve with a large enough effect; inconclusive = small, poorly fitted or top-dose-only effect; inactive = flat fitted curve, though single readings scatter. Where the call is inconclusive, the potency comes from a doubtful curve fit.
# Assay: qHTS for Inhibitors of human tyrosyl-DNA phosphodiesterase 1 (TDP1): qHTS in cells in absence of CPT; note: nearly all actives have a fitted effect of over 55% in size
# Settings: DT40 Tdp1-/- hTDP1 cells, no CPT, ATP luminescence, 48 h; activity change, negative = growth inhibition: at 46.2 µM (top of the series) unless noted
# Outline: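 A cellular qHTS used chicken DT40 cells lacking endogenous Tdp1 but carrying stably transfected human TDP1. Compounds were applied without camptothecin, and cell growth kinetics were judged by ATP-dependent luminescence after ≥48 hr.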
# % is set by controls: 0 for no effect and ±100 for the full control effect; potency is the fitted concentration of half-maximal effect; tags give direction and shape of the fitted curve.
Compound,Potency,"activity change, negative = growth inhibition"
CCOC(=O)C1CCN(C(=O)c2cccc(S(=O)(=O)N3c4ccccc4CC3C)c2)CC1 (stereo not drawn),"inconclusive: 14.6 µM [inhibitor, partial curve]",
CCOc1ccc(/C(O)=C2/C(=O)C(=O)N(CCN(CC)CC)C2c2cccs2)cc1 (stereo not drawn),"inconclusive: 14.6 µM [inhibitor, partial curve]",
COc1ccc(C(c2nnnn2CC2CCCO2)N2CCN(c3ccc(F)cc3)CC2)cc1 (stereo not drawn),"inconclusive: 23.1 µM [inhibitor, single point]",
CC(C)(C)n1nnnc1C(c1ccccc1)N1CCN(c2ccccc2)CC1 (stereo not drawn),"inconclusive: 29.1 µM [inhibitor, single point]",
NS(=O)(=O)c1ccc(CCn2c(=S)[nH]c3ccc(F)cc3c2=O)cc1,"inconclusive: 29.1 µM [inhibitor, single point]",
CC(C)(C)OC(=O)NN=C(c1ccc(O)cc1)c1ccc(O)cc1,,inactive: 2.18%
CCc1cccc(C)c1NC(=O)c1cc(S(=O)(=O)N2CCC3(CC2)OCCO3)ccc1F,,inconclusive: -55.1% [inhibitor]
Cc1oc(-c2ccc(Cl)cc2)nc1CN1CCCC(C(=O)NCCc2ccccc2)C1 (stereo not drawn),active: 5.8 µM,
CC(C)(C)OC(=O)C(Oc1ccccc1[N+](=O)[O-])C(=O)OC(C)(C)C,"inconclusive: 29.1 µM [inhibitor, single point]",
Cc1ccc(S(=O)(=O)N2CCCc3cc(NS(=O)(=O)c4ccc(C)c(C)c4)ccc32)cc1,"inconclusive: 23.1 µM [inhibitor, single point]",
COc1ccc2nc(SCC(=O)NCc3ccc(F)cc3)[nH]c2c1,"inconclusive: 10.3 µM [inhibitor, partial curve, poor fit]",
C[C@]12C=CC(=O)C=C1CC[C@@H]1[C@@H]2C(=O)C[C@@]2(C)[C@H]1CC[C@]2(O)C(=O)CO,"inconclusive: 23.7 µM [inhibitor, single point] and inconclusive: 29.1 µM [inhibitor, single point]",
COc1ccc(C(=O)NC(=S)Nc2cccc3cc(O)ccc23)cc1OC,,inactive: -2.95%
COc1nc(OC)nc(N2CCC(C(=O)NCc3cccs3)CC2)n1,,inactive: -16.5%
O=C(O)c1ccc(C(=O)Nc2cccc(NC(=O)C3CCCO3)c2)cc1 (stereo not drawn),,inactive: -0.25%
CCOC(=O)C[N+](CC)(CC)CC#Cc1ccccc1,,inactive: -7.19%
Cc1cccc(NC(=O)c2ccc(OCc3c(C)noc3C)cc2)c1C,"inconclusive: 29.1 µM [inhibitor, single point]",
Nc1cc(=O)[nH]c(SCc2cccc(Cl)c2)n1,"inconclusive: 18.4 µM [inhibitor, single point]",
O=C(Nc1cccc(C(=O)O)c1)/C(=C\c1ccccc1)NC(=O)c1cccc2ccccc12,,inactive: 10.8%
CSc1ccc(CN2CCC(C)(Oc3cccc(Cl)c3)C2)cc1 (stereo not drawn),"inconclusive: 25.9 µM [inhibitor, single point]",
CN(C)c1ccc(N=Nc2ccc(/C=C/c3ccnc4ccccc34)cc2)cc1,active: 17.8 µM,
COC(=O)c1ccn(-c2nc(-c3ccc(Cl)cc3)cc(C(F)(F)F)n2)n1,"inconclusive: 20.6 µM [inhibitor, single point]",

Compound,Potency,"activity change, negative = growth inhibition"
Cc1ccc(NC(=O)CN(C)C(=O)c2cc(-c3ccccc3)nn2-c2ccccc2)cc1,"inconclusive: 29.1 µM [inhibitor, single point]",
CCOC(=O)Nc1nc(C)c(C(=O)c2ccc(Cl)cc2)s1,"inconclusive: 13 µM [inhibitor, partial curve]",
Clc1ccccn1,,inactive: 1.22%
CCOC(=O)c1ccc(N2C(=O)CC(N3CCCC(C)C3)C2=O)cc1 (stereo not drawn),"inconclusive: 35.5 µM [inhibitor, single point]",
NC(=O)c1nsc(C(=O)N(c2cccc(F)c2)C(C(=O)NCC2CCCO2)c2ccc3ncccc3c2)c1N (stereo not drawn),,inconclusive: -34.1% [inhibitor]
Cc1c(-c2nnc(SCC(=O)Nc3ccc(Br)cc3)o2)nnn1-c1ccc(F)cc1,,inactive: -27.9%
O=C(NCc1cccnc1)C1c2ccccc2C(=O)N1C1CCCC1 (stereo not drawn),,inactive: -3.92%
CCCc1nc2ccc(C)cn2c1Cc1ccccc1C(F)(F)F,"inconclusive: 20.6 µM [inhibitor, single point]",
O=S(=O)(Nc1cc(S(=O)(=O)N2CCOCC2)ccc1O)c1ccc2c(c1)OCCCO2,"inconclusive: 29.1 µM [inhibitor, single point]",
O=C(Cn1c(=O)n(Cc2ccc(C(=O)NCc3ccc4c(c3)OCO4)cc2)c(=O)c2ccccc21)Nc1ccc(F)cc1F,"inconclusive: 16.4 µM [inhibitor, single point]",
CC(=O)N1CCCC(C)(C(=O)Nc2ccc3oc(C)nc3c2)C1 (stereo not drawn),,inactive: -12.5%
COc1ccc(COC(=O)C2=C(C)NC(=O)NC2c2cc(Br)c(O)c(OC)c2)cc1 (stereo not drawn),"inconclusive: 29.1 µM [inhibitor, single point]",
CCOc1cccc(-n2nnnc2-c2ccc(OC)cc2)c1,active: 2.91 µM,
NC(=O)C1(Nc2ccccc2)CCCC1,,inactive: -2.49%
COc1ccc(C(=S)N2CCN(S(=O)(=O)c3ccccc3)CC2)cc1,"inconclusive: 18.4 µM [inhibitor, single point]",
COc1ccccc1/C=N/n1c(N)c(C(=O)NC2CCCCC2)c2nc3ccccc3nc21,"inconclusive: 23.1 µM [inhibitor, single point]",
Cc1ccc(C(=O)N/N=C\c2ccccn2)cn1,,inactive: -15.5%
CN1CCc2nc(NC(=O)COc3ccc(C#N)cc3)sc2C1,"inconclusive: 29.1 µM [inhibitor, single point]",
Cc1n[nH]c(=O)c2c(NC(=O)CSc3ccc(Br)cc3)oc(C)c12,"inconclusive: 29.1 µM [inhibitor, single point]",
O=C(CS(=O)(=O)c1cccc2nsnc12)N1CCN(c2ccccc2)CC1,,inconclusive: -34.5% [inhibitor]
COC(=O)[C@@]12C[C@@H](CC(=O)N3CCSCC3)C(=O)N(Cc3ccccc3)C1=CCC(C)(C)C2,"inconclusive: 29.1 µM [inhibitor, single point]",
